The campaign covered roughly 310,000 compounds. About 2,200 (0.71%) showed an effect of 50% or more. Effects have a minus sign here. The list shows a part of the results.
target: human ether-à-go-go-related gene (hERG) potassium channel (human, UniProt Q12809); assay: primary screen, population patch clamp on CHO cells stably expressing hERG
Sequence (Q12809 whole entry, looked up): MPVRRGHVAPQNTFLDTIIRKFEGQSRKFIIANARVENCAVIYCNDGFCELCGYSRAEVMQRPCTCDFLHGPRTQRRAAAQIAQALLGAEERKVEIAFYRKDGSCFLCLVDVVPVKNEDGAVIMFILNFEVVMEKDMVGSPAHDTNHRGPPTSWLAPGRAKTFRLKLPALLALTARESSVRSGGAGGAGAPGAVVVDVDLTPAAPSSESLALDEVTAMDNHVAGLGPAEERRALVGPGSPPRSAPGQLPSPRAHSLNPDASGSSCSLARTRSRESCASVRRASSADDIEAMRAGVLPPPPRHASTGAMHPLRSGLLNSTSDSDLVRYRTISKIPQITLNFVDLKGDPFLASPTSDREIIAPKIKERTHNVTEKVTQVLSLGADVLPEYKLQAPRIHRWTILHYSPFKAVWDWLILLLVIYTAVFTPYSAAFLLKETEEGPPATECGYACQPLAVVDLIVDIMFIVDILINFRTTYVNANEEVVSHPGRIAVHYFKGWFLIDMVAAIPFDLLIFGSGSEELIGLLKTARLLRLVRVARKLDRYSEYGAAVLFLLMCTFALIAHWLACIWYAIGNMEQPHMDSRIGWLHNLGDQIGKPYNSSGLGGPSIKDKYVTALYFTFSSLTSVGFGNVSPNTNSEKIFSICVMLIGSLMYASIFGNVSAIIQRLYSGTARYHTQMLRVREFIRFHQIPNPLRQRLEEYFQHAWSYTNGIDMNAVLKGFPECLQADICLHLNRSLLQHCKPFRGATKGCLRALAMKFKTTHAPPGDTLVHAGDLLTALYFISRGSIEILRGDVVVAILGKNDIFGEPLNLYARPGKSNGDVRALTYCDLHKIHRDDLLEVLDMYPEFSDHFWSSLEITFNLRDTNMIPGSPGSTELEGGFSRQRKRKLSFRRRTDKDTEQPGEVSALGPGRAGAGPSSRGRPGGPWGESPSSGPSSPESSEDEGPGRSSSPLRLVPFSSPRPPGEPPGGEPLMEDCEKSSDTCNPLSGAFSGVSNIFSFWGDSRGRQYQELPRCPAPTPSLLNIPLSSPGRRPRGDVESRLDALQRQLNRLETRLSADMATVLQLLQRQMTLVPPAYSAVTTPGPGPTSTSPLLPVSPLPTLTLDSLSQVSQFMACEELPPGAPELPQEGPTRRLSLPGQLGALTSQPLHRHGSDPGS

Compound | hERG current change (%, negative = inhibition) at 1uM
O=C(c1csc2c1CCCC2)n1cccn1 | 12.4%
COc1cccc(CNC(=O)COC(=O)CCc2cc(OC)c(OC)c(OC)c2)c1 | 7.59%
Cc1cnc(C(=O)OCC(=O)NC23CC4CC(CC(C4)C2)C3)cn1 | -12.2%
Cc1cc(=O)[nH]c(Nc2ccccc2C)n1 | 2.3%
Oc1ccc(/C=C/c2ccc3ccccc3n2)cc1 | 24.5%
COc1ccc(NC(=S)N2CCN(Cc3ccco3)CC2)c(OC)c1 | 16.4%
CC(=O)c1ccc(N=Nc2ccc(N(C)C)cc2)cc1 | 16%
CCN(CC)c1ccc(NC(=S)NC(=O)Cc2ccccc2)cc1 | 7.06%
CN(CC(=O)Nc1ccc(F)cc1)c1ccc(S(=O)(=O)N2CCCC2)cn1 | 7.54%
O=C(c1cccc(Br)c1)N1CCN(c2ccc(N3CCOCC3)nn2)CC1 | -2.13%
O=C(/C=C/c1ccco1)NC(=S)Nc1ccccc1O | 14.4%
COc1ccc2oc(=O)c(C(=O)Nc3cccc(C)c3)cc2c1 | 14.7%
COCCNC(C(=O)Nc1cc(Cl)cc(Cl)c1)c1ccccc1 (stereo not shown) | 4.71%
CCc1c(C)c(C#N)c2nc3ccccc3n2c1N(C)C | 9.46%
CCn1c(SCC(=O)NCC2CCCO2)nnc1-c1ccc(S(=O)(=O)N2CCN(C)CC2)cc1 (stereo not shown) | 8.9%
O=C(N/N=C/c1ccccn1)C12CC3CC(CC(C3)C1)C2 | 8.79%
CCCOc1cccc(-c2nnc(NC(=O)c3ccco3)s2)c1 | -6.8%
O=C(NCc1ccccc1)c1ncn[nH]1 | 6.05%
CC(=O)NC(Cc1ccc(F)cc1)C(=O)NC1CCN(C(=O)Nc2cccc(C)c2)CC1 (stereo not shown) | 13.1%
CC(=O)c1cccc(N2C(=NC(=O)COc3ccccc3)SC3CS(=O)(=O)CC32)c1 (stereo not shown) | 16.7%
C/C(=N\NC(=O)COc1ccccc1-c1ccccc1)c1ccc(O)cc1O | 16.4%
CCOC(=O)Cc1csc(NC(=O)c2ccc(S(=O)(=O)N3CCOCC3)cc2)n1 | 6.98%
CCC(=O)NC(=S)Nc1ccc(S(=O)(=O)NC(C)C)cc1 | -4.95%

Compound | hERG current change (%, negative = inhibition) at 1uM
Cc1nc2cc(C(=O)NCc3cccnc3)ccc2n1-c1ccc(F)cc1F | 6.7%
Cc1ccc(C(C(=O)NCc2ccco2)N(C(=O)CNC(=O)c2cccs2)c2c(C)cccc2C)cc1 (stereo not shown) | 13.1%
CC1(C)COC(Nc2ccc(Cl)cc2)=N1 | 11.7%
CCCN1CCN(CCCNC(=O)c2cc3c(=O)n(C)c4ccccc4c3n2C)CC1 | 4.91%
COc1ccc(N2C(=O)c3ccc(C(=O)Nc4ccccc4O)cc3C2=O)cc1 | 14.7%
Cc1ccc(S(=O)(=O)Nc2nsc(N)n2)cc1 | 13.9%
C/C(CC(=O)Nc1cc(Cl)ccc1Cl)=N\NC(=O)c1ccccc1Br | 7.09%
Cc1cc(-n2cnc(-c3cn[nH]c3C)n2)no1 | 14%
CN(C)c1ccc(Cl)cc1N.Cl | 6.95%
Cc1ccc(NC(=O)COC(=O)CCCC2=NS(=O)(=O)c3ccccc3N2)cc1C | 10.8%
COC(=O)c1ccc(NC(=O)C23CCC(C)(C(=O)O2)C3(C)C)cc1 (stereo not shown) | 9.91%
COc1ccc(/C=N\NS(=O)(=O)c2ccc(Br)cc2)cc1COc1ccccc1[N+](=O)[O-] | 13.1%
O=C1COC(c2ccccc2)C2CCCCN12 (stereo not shown) | 12.4%
O=c1c2cnn(-c3ccccc3)c2nc(-c2cccs2)n1-c1ccc(Br)cc1 | -6.26%
Cc1nnc(NC(=O)c2ccc(S(=O)(=O)N(C)c3ccccc3)cc2)s1 | 11.9%
Cc1ccc(S(=O)(=O)NNC(=O)Cc2cccn2C)cc1 | 15.4%
Cc1ccc(C)c(OCCC(=O)NNC(=O)c2ccccc2)c1 | 10.8%
Cn1c2c(c(=O)n(C)c1=O)C(CC(=O)Nc1ccccc1F)C(=O)N2 (stereo not shown) | 14.2%
CC1CC(CC(=O)NC(=S)Nc2ccccc2Cl)C(=O)O1 (stereo not shown) | 19.6%
CC(=O)Nc1cc(C(=O)O)ccc1S(=O)(=O)c1ccc(C)cc1 | 6.45%
CC(=O)c1sc(NC(=O)c2ccc(COc3ccccc3Cl)o2)nc1C | 16.4%
CCCC(C(=O)OCC)P(=O)(c1ccccc1)c1ccccc1 (stereo not shown) | -0.896%
COC(=O)Cc1[nH]c(Cl)nc1C(N)=O | 11.4%

Compound | hERG current change (%, negative = inhibition) at 1uM
CC(=O)c1ccc(NC(=O)[C@@H]2CCCN2C2=NS(=O)(=O)c3ccccc32)cc1 | 8.48%
O=C(Nc1ccc2ccccc2c1)N1C[C@H]2C[C@@H](C1)c1cccc(=O)n1C2 | 9.9%
C=CCN1CC(=O)N2C(C)c3[nH]c4ccccc4c3C[C@H]2C1=O (stereo partly shown) | 15.5%
CN(C)CCNC(=O)/C(=N\O)c1ccccn1 | 7.21%
CCC1(CC)NC(=O)N(CC(=O)OC(C)C(=O)Nc2ccccc2OC)C1=O (stereo not shown) | 25.9%
CC(=O)Nc1sc2c(c1C(N)=O)CCCC2 | 23.9%
CC(=O)N=c1sc2c3ccccc3ccc2n1C | 13.9%
O=C(/C=C/NNC(=O)c1ccccc1)c1ccc(Br)cc1 | 4.11%
COc1cc(/C=C2\SC(=S)N(CCC(=O)Nc3ccccc3)C2=O)cc(OC)c1OC | 5.17%
O=C(O)CC1(CC(=O)NCc2csc(-c3cccs3)n2)CCCCC1 | 5.04%
Cc1cccc(-n2c(O)c(C=Nc3ccc4c(c3)OCO4)c3ccccc3c2=O)n1 | 7.07%
CCc1ccc(NC(=O)NCc2ccccn2)cc1 | 5.57%
N#Cc1c(N2CCCCC2)nc(N)c2c(N)nc(SCC(=O)O)cc12 | 8.09%
O=C(Nc1ccc2c(c1)OCO2)C(c1ccc(Cl)cc1)N1CCN(C(=O)c2ccco2)CC1 (stereo not shown) | -2.42%
COc1ccc(/C=C(\NC(=O)c2ccccc2)C(=O)NCc2ccco2)cc1OC | 16.6%
CC(NC(=O)c1ccccc1Br)c1nnc(SCC(=O)NC2CCCCC2)n1C (stereo not shown) | 5.31%
Cc1nnc(SCC(=O)N2CC(=O)Nc3ccccc32)n1Cc1ccccc1 | 0.0402%
Cc1oc(C(C)(C)C)cc1C(=O)NC1CCN(Cc2ccccc2)CC1 | 3.76%
N#CC1=C(N)C(C#N)(C#N)C2(C(=O)Nc3ccccc32)C2CCCC=C12 (stereo not shown) | 11%
COc1ccc(NC2=NCCC2)cc1 | 8.02%
COc1ccnc(Oc2ccccc2)n1 | 8.18%
COc1ccc(N(C(=O)c2csnn2)C(C(=O)NC2CCCC2)c2ccccc2)cc1 (stereo not shown) | 1.22%
Cc1nc2ccc(NC(=O)c3sccc3C)cc2s1 | 3.32%

Compound | hERG current change (%, negative = inhibition) at 1uM
CCc1ccc(OCC(=O)O/N=C(\N)Cc2ccc([N+](=O)[O-])cc2)cc1 | -9.98%
Fc1ccc(SCCc2ccncc2)cc1 | -1%
COc1ccc(CN(C)C(=O)C2CSC3(C)CCC(=O)N23)cc1OC (stereo not shown) | 13.3%
CCc1cccc(C)c1NS(=O)(=O)c1cccs1 | 3.86%
CS(=O)(=O)c1ccc(NC(=O)c2cccc(-n3cnnn3)c2)cc1 | 14.8%
COc1ccc(C2=NOC(C(=O)NC(C)C)C2)cc1 (stereo not shown) | 19.2%
CCOC(=O)CN(C(=O)CN1CCOCC1)c1ccc(Br)cc1 | -5.97%
Cc1nn(CCCC(=O)NCCc2ccccc2)c(=O)c2nn(-c3ccccc3)c(C)c12 | 9.68%
Cc1cc(C)cc(C(=O)NCC(=O)NNC(=O)CSc2ccccc2F)c1 | 14.5%
Cc1ccc(C(=O)Nc2ccc(C(=O)N/N=C/c3ccc(C)o3)cc2)cc1 | 12.1%
Cc1ccc(S(=O)(=O)CC(=O)NC(C)c2ccccc2)cc1 (stereo not shown) | 7.07%
Cc1nc2ccc(NC(=O)c3ccc(S(=O)(=O)N4CCOCC4)cc3)cc2s1 | -3.72%
Cc1ccc(C(C(=O)NC2CCCC2)N2CCc3ccccc32)cc1 (stereo not shown) | 10.6%
Cc1cccc(C(=O)NCC(=O)OCC(=O)N(C)CC(=O)Nc2ccc(F)cc2)c1 | 11%
CCCCC1(C)NC(=O)N(CC(=O)Nc2ccc(S(=O)(=O)N3CCOCC3)cc2)C1=O (stereo not shown) | 10.5%
Cc1cccc(NC(=O)CSc2nc(C)c(Cc3ccccc3)c(=O)[nH]2)c1C | 13.5%
COc1ccc(NC(=S)N(CCc2c(C)[nH]c3ccc(C)cc23)Cc2cccs2)cc1 | 9.22%
O=C(CN1CCC(C(=O)O)CC1)Nc1ccccc1Oc1ccccc1 | 16.1%
COc1ccc(NC2=CC(=O)CC(C)(C)C2)cc1OC | 9.31%
COc1ccc(NC(=O)C(c2ccc(C)cc2)N(C)C(=O)CNC(C)=O)cc1 (stereo not shown) | -1.11%
Cc1ccc(-c2nn(-c3ccccc3)cc2C=C2C(=O)CC(C)(C)CC2=O)cc1 | 6.2%
CCC(=NCCCN(CC)CC)c1c(O)n(C2CCCCC2)c(=O)[nH]c1=O | -37.3%

— publication PMC4336329 (PLoS ONE, 2015)
